Data on seven cell lines can be found in the supplement of paper PMC4967469.

Lines with a small IC50 respond at low doses; a fit beyond the top or the lowest dose is shown as a bound at that dose. AUC is the area under the same curve over the 256-fold range up to the top dose, as a fraction; values near 1 show little effect. For some assays here: A top dose marked as inferred was calculated from the reported fits. For some assays here: Where an entry number is given, a second screen of the drug exists; the two often differ.

Holding throughout (experiment): Viability of human cancer cell lines after 72 h of drug (GDSC screen)
Compound in one experiment: O=C(Nc1ccc(OC(F)(F)F)cc1)c1sccc1NCc1ccnc2ccccc12 [OSI-930]
To be noted: top dose 10.24 µM. How it is done: (§1)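 Human cancer cell lines in 384-well plates, medium with 10% serum, drug for 72 h over a 256-fold dose range (nine 2-fold or five 4-fold steps up to the top dose). Adherent lines were fixed and stained with the nucleic acid dye Syto60, suspension lines read with resazurin; signal relative to control wells, capped at 0 and 100%. One two-parameter sigmoid per drug and line, fitted in a mixed model over all curves with the slope shared within a line.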

Compound in another experiment: CCCC(=O)OCc1ccc(OC(=O)/C=C(C)/C=C/C=C(C)/C=C/C2=C(C)CCCC2(C)C)cc1 [VNLG/124]
To be noted: top dose 5.12 µM; top dose inferred. How it is done:
as §1

Compound in another experiment: O=S(=O)(O)c1ccc2cc(N=Nc3cc(S(=O)(=O)O)c4cccnc4c3O)ccc2c1 [NSC-87877]
Conditions: top dose 16 µM; top dose inferred. The protocol: as §1

Compound in another experiment: O=C(/C=C/c1ccc(CN(CCO)CCc2c[nH]c3ccccc23)cc1)NO [LAQ824]
To be noted: top dose 1.024 µM; top dose inferred. The protocol: as §1

Compound in the next experiment: Cc1c(N)nc([C@H](CC(N)=O)NC[C@H](N)C(N)=O)nc1C(=O)N[C@H](C(=O)N[C@H](C)[C@@H](O)[C@H](C)C(=O)N[C@H](C(=O)NCCc1nc(-c2nc(C(=O)NCCC[S+](C)C)cs2)cs1)[C@@H](C)O)[C@@H](OC1OC(CO)C(O)C(O)C1OC1OC(CO)C(O)C(OC(N)=O)C1O)c1cnc[nH]1 [Bleomycin]
The protocol:
as §1

Compound in another experiment: O=C(Nc1cccc(Nc2ncc(Br)c(NCCc3cnc[nH]3)n2)c1)N1CCCC1 [BX-912]
To be noted: top dose 10.24 µM; top dose inferred. The protocol: as §1

Compound in another experiment: Cc1ccc(NC(=O)c2ccc(CN3CCN(C)CC3)cc2)cc1Nc1nc(-c2cccnc2)cs1 [Masitinib]
To be noted: top dose 20 µM. How it is done: as §1

Compound in another experiment: CN(NC(=O)CC(=O)NN(C)C(=S)c1ccccc1)C(=S)c1ccccc1 [Elesclomol]
To be noted: top dose 0.2 µM; top dose inferred. The protocol:
as §1

Where [1] appears, read: top dose 50 µM, screen: GDSC drug entry 1378, top dose inferred.
Setting [2] is: top dose 64 µM, screen: GDSC drug entry 190.

For the cell line SK-OV-3 (ovary, adherent), the AUC is 0.94 in the experiment with OSI-930; 0.959 in the experiment with VNLG/124; 0.981 with NSC-87877; 0.367 in the experiment with LAQ824; 0.626 with Bleomycin (setting [1]); 0.381 in the experiment with Bleomycin (setting [2]). The AUC is 0.872 with BX-912, 0.886 with Masitinib and 0.427 in the experiment with Elesclomol. The IC50 – broadly, the midpoint of a concentration-inhibition curve – in the experiment with OSI-930 is over 10.2 µM; with VNLG/124, over 5.12 µM; with NSC-87877, over 16 µM; with LAQ824, 24.9 nM; with Bleomycin (setting [1]), 7.6 µM; with Bleomycin (setting [2]), 1.73 µM. Besides, the IC50 was over 10.2 µM in the experiment with BX-912, over 20 µM with Masitinib and 7.52 nM with Elesclomol.
In the case of HDQ-P1 (breast, adherent), the AUC in the experiment with OSI-930 turned out to be 0.925; with VNLG/124 it was 0.939; with NSC-87877, 0.985; with LAQ824, 0.715; in the experiment with Bleomycin (setting [1]) it was 0.784; in the experiment with Bleomycin (setting [2]) it was 0.82. Further, the AUC with BX-912 came to 0.961; with Masitinib, 0.969; with Elesclomol it was 0.943. Also, the IC50 with OSI-930 is over 10.2 µM; in the experiment with VNLG/124 it was over 5.12 µM; in the experiment with NSC-87877, over 16 µM; in the experiment with LAQ824, 296 nM; with Bleomycin (setting [1]), 25.8 µM; in the experiment with Bleomycin (setting [2]) it was 46.3 µM. The IC50 with BX-912 is over 10.2 µM; with Masitinib, over 20 µM; with Elesclomol it was over 200 nM.
With KMS-12-BM (myeloma, suspension), the AUC in the experiment with OSI-930 was 0.901; with VNLG/124, 0.977; with NSC-87877 it was 0.989; in the experiment with LAQ824, 0.262; in the experiment with Bleomycin (setting [2]) it was 0.866; with BX-912, 0.83. Besides, the AUC in the experiment with Masitinib worked out at 0.795; with Elesclomol, 0.465. For the same cell line, the IC50 was 9.16 µM with OSI-930; over 5.12 µM with VNLG/124; over 16 µM in the experiment with NSC-87877; 15.5 nM with LAQ824; 41.3 µM in the experiment with Bleomycin (setting [2]); 4.98 µM with BX-912. The values for the IC50 with Masitinib and in the experiment with Elesclomol were 7.53 µM and 10.2 nM, respectively.
In the case of HCC1143 (breast, adherent), the AUC with OSI-930 is 0.966; in the experiment with VNLG/124 it was 0.979; with NSC-87877, 0.926; in the experiment with LAQ824, 0.438; in the experiment with Bleomycin (setting [1]), 0.795; in the experiment with Bleomycin (setting [2]) it was 0.68. Also, the figures for the AUC with BX-912, with Masitinib and with Elesclomol were 0.949, 0.891 and 0.74, respectively. The IC50 with OSI-930 is over 10.2 µM; in the experiment with VNLG/124, over 5.12 µM; in the experiment with NSC-87877, over 16 µM; in the experiment with LAQ824, 40.5 nM; with Bleomycin (setting [1]), 34.7 µM; with Bleomycin (setting [2]), 15.6 µM. In addition, the IC50 is over 10.2 µM with BX-912, over 20 µM with Masitinib and 81.9 nM with Elesclomol.
As for KOPN-8 (B-cell leukaemia, suspension), the AUC with OSI-930 was found to be 0.88; with VNLG/124, 0.971; with NSC-87877, 0.99; with LAQ824, 0.332; with Bleomycin (setting [1]), 0.633; in the experiment with Bleomycin (setting [2]), 0.388. The AUC stood at 0.374 with BX-912, 0.714 with Masitinib and 0.463 with Elesclomol. The IC50 with OSI-930 is 8.02 µM; with VNLG/124, over 5.12 µM; with NSC-87877, over 16 µM; with LAQ824 it was 23.6 nM; in the experiment with Bleomycin (setting [1]) it was 6.86 µM; in the experiment with Bleomycin (setting [2]), 2.07 µM. The IC50 in the experiment with BX-912 was found to be 0.304 µM; with Masitinib it was 4.54 µM; with Elesclomol, 10.1 nM.
As to “SUP-B15 (lymphoblastic leukaemia, suspension)”, the AUC with OSI-930 was determined as 0.888; in the experiment with VNLG/124, 0.971; with NSC-87877, 0.985; in the experiment with LAQ824, 0.17; with Bleomycin (setting [2]), 0.025; with BX-912 it was 0.401. Also, the values for the AUC with Masitinib and with Elesclomol were 0.466 and 0.927, respectively. For the same cell line, the half-inhibitory concentration (IC50) was over 10.2 µM with OSI-930; over 5.12 µM with VNLG/124; over 16 µM in the experiment with NSC-87877; 6.76 nM with LAQ824; under 0.25 µM with Bleomycin (setting [2]); 0.347 µM with BX-912. The IC50 with Masitinib was 1.01 µM; in the experiment with Elesclomol, over 200 nM.
As to SAT (head and neck, adherent), the AUC with OSI-930 is 0.975; with VNLG/124, 0.936; with NSC-87877 it was 0.914; with LAQ824, 0.574; with Bleomycin (setting [1]), 0.652; with Bleomycin (setting [2]) it was 0.864. The AUC in the experiment with BX-912 came out at 0.928; with Masitinib, 0.975; with Elesclomol, 0.849. In addition, the IC50 is over 10.2 µM in the experiment with OSI-930; over 5.12 µM with VNLG/124; over 16 µM with NSC-87877; 114 nM with LAQ824; 10.4 µM with Bleomycin (setting [1]); over 64 µM with Bleomycin (setting [2]). The IC50 with BX-912 is over 10.2 µM; with Masitinib it was over 20 µM; in the experiment with Elesclomol it was over 200 nM.
